From article PMC6919601, “Identification of Plasmodium dipeptidyl aminopeptidase allosteric inhibitors by high throughput screening” (PLoS ONE, 2019)
Screen size: about 110,000 compounds; about 230 (0.21%) showed an effect of 50% or more. The list shows a part of the results.

The molecules below were run against DPAP1 (Plasmodium falciparum, UniProt Q8IIJ9) (assay: primary screen, percent inhibition; read by cleavage of a fluorogenic dipeptide substrate; higher = more effect of the substance).
Parameters: species or system P. falciparum D10 trophozoite lysates; single well
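Further: 30 min substrate incubation versus DMSO and 10 µM JCP410 controls.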

Sequence of DPAP1 (Q8IIJ9 whole entry, looked up): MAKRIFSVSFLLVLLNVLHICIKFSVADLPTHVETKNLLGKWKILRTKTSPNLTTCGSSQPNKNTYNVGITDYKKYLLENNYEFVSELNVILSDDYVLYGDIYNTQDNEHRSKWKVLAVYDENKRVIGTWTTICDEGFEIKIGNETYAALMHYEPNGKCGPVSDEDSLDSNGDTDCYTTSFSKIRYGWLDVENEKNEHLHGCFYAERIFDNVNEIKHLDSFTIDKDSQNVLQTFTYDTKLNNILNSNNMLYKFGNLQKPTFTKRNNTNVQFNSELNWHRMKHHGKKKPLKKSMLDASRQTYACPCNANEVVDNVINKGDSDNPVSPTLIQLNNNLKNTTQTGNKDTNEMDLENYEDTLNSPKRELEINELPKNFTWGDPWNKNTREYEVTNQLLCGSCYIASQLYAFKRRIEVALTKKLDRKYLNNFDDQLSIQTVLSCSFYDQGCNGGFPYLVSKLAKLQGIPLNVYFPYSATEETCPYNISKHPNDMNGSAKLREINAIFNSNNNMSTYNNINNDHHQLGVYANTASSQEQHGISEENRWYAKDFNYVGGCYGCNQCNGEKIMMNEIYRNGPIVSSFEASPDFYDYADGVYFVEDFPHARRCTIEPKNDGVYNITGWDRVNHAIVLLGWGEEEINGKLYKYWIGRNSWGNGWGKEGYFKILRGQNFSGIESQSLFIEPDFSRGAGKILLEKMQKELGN

Point of comparison: Cc1[nH]c2ccccc2c1C(=O)/C=C/c1c2ccccc2cc2ccccc12, “% Inhibition @ 10 uM” value -1.86%. Against it:
- CCCN1CCC(N2CCCCC2)CC1 — higher, -0.303%
- Cc1cc(C)nc(N2N=C(c3ccccc3)CC2=O)n1 — lower, -3.33%
- CNc1oc(/C=C/c2ccc(F)cc2)nc1C#N — lower, -2.57%
- CN1CCN(C(=O)Nc2cccc3ccccc23)CC1 — higher, 6.06%
- Cc1sc(NC(=O)Nc2ccccc2)c(C(N)=O)c1C — higher, 1.84%
- CCOC(=O)c1cc2c(s1)-c1c(C)cccc1OC2 — higher, 0.231%
- Cc1nc(C)c(NC(=O)NC(C)(C)C)cc1NC(=O)NC(C)(C)C — higher, 5.7%
- Cc1oc2ncnc(N3CCOCC3)c2c1C(=O)N(CCC(C)C)Cc1ccco1 — higher, 13.4%
- CCC1OCC2(COC(C)=O)C(C)C=C(C)C1C2C (stereo not drawn) — higher, 2%
- CCCCc1nnc2sc(NC(=O)c3cccs3)nn12 — higher, 0.00665%
- CC1=C(c2ccc(Cl)cc2)S(=O)(=O)N=C1N1CCC(C(=O)NC2CCCC2)CC1 — higher, 3.16%
- N#Cc1cn(CCCOc2ccccc2)c2ccccc12 — lower, -4.49%
- CCCCn1c(Oc2ccccc2Cl)nc2c1c(=O)n(C)c(=O)n2C — higher, 6.89%
- Cc1cccc(OCC(=O)Nc2ccc3ccccc3c2)c1 — higher, 0.467%
- COc1ccc(CCNC(=O)CSc2nc(C)cc(C)n2)cc1OC — higher, 1.59%
- CCC(C(=O)NCc1ccncc1)c1ccccc1 (stereo not drawn) — higher, 5%
- OC1CCN(Cc2c(F)cccc2F)CC1 — higher, 0.273%
- Cc1ccc(S(=O)(=O)N2CCN(C(=O)COc3ccccc3)C2c2ccccc2)cc1 (stereo not drawn) — lower, -8.17%
- O=C(O)c1ccc2c(c1)C(=O)N(c1ccccc1Cl)C2=O — lower, -1.95%
- CCS(=O)(=O)n1nc(-c2ccc(OC)cc2)nc1SC — higher, -0.958%
- c1ccc(-c2noc(-c3ccc4ccccc4c3)n2)cc1 — lower, -1.99%
- N#CC1=C(N)Oc2[nH]nc(-c3ccc(Cl)c(Cl)c3)c2C1c1ccc(O)c(O)c1 (stereo not drawn) — higher, 4.09%
- CC1(C)CC2=Nc3ccccc3NC(c3ccc4c(c3)OCO4)C2=C(O)C1 (stereo not drawn) — lower, -4.58%
- O=C(NC1CCCC1)C1CC1c1ccccc1 (stereo not drawn) — higher, 1.26%
- COc1ccc(CCNS(=O)(=O)c2cc(F)ccc2CN2C(=O)c3cccnc3C2=O)cc1OC — lower, -4.05%
- CN(C)c1ccc(NC(=O)C(=O)NCc2ccccc2Cl)cc1 — lower, -2.18%
- CSc1ncc(C(=O)NC(C)c2ccccc2)c(C)n1 (stereo not drawn) — higher, -1.26%
- O=C(CCc1nc2ncccc2c(=O)n1Cc1ccccc1Cl)N1CCN(C2CCCCC2)CC1 — higher, 0.953%
- COc1ccc(-c2cc(C(=O)NCC3CCCO3)c3cc(C)ccc3n2)cc1 (stereo not drawn) — higher, 5.17%
